We go through 86 molecules from article PMC13083723 (Patterns, 2026).

In all, about 5,400 compounds went through this assay and about 190 (3.5%) showed an effect of 50% or more. Some of the results follow. Non-standard residues stand in square brackets, D forms with d. Residues, ends and D or L forms follow the SMILES beside them. pGlu = O=C1CC[C@@H](C(=O)O)N1; Thz = O=C(O)[C@@H]1CSCN1

For the test, the system named is Vero-E6. Briefly: primary screen, phospholipidosis by LipidTOX staining; higher = more effect of the substance. To be noted: 10 µM. The procedure, abridged: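 Drug-induced phospholipidosis detected with HCS LipidTOX Red reagent in Vero-E6 cells. Compounds tested at 10 μM, with amiodarone (10 μM) as positive control and DMSO (0.1 v/v %) as vehicle.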
`C[C@]12CC[C@H](O)C[C@H]1CC[C@@H]1[C@@H]2CC[C@]2(C)[C@@](O)(c3ccoc3)CC[C@]12O`: the result_ITMP was -7.29%.

As to `CCOC(CN1CCN(CC(C)C(=O)c2ccccc2)CC1)c1ccccc1` (centres unmarked), the result_ITMP stood at 6.42%.

With `OCC(CO)N[C@H]1C[C@](O)(CO)[C@@H](O)[C@H](O)[C@H]1O`, the result_ITMP is 7.39%.

As for `COc1ccc(S(=O)(=O)N2CCC[C@H]2C(=O)Nc2cc(C)cc(C)c2)cc1`, the result_ITMP was -5.81%.

For the molecule `O=C(NCC1CCOCC1)c1cnc(Nc2ccc(Cl)cc2Cl)nc1C(F)(F)F`, the result_ITMP was -8.68%.

Take `Cc1cc(Nc2ncnc3ccc(NC4=NC(C)(C)CO4)cc23)ccc1Oc1ccn2ncnc2c1`: the result_ITMP is on record as -7.95%.

For `CC1(C)CN2C(CS/C(=N/C3CCCCC3)NC3CCCCC3)=CSC2=N1`, the result_ITMP stood at 49.5%.

`Cc1cccc(Oc2nc3c(C)cccn3c(=O)c2/C=C(\C#N)c2nc3ccccc3s2)c1`: the result_ITMP is listed as -2.64%.

As to `COC(=O)[C@@]12OC[C@]34[C@H]([C@@H](O)[C@@H]1O)[C@@]1(C)CC(=O)C(O)=C(C)[C@@H]1C[C@H]3OC(=O)[C@H](OC(=O)/C=C(\C)C(C)C)[C@@H]24`, the result_ITMP is given as -3.12%.

As for `CCc1ccc(/C=C2/SC(=S)NC2=O)cc1`, the result_ITMP is recorded as 0.78%.

On to `COC(=O)[C@@H](N)CCCNC(=N)N[N+](=O)[O-]`, for which the result_ITMP is given as -7.77%.

Take `CCN(CC)CCNC(=O)c1cc(Br)c(N)cc1OC`: the result_ITMP is -5.26%.

In the case of `CC(C)=CCC/C(C)=C/CC/C(C)=C/CSc1ccccc1C(N)=O`, the result_ITMP is recorded as -0.49%.

In the case of `CC1(C)O[C@@H]2[C@@H](CO[C@@]3(COS(N)(=O)=O)OC(C)(C)O[C@@H]23)O1`, the result_ITMP was -2.52%.

`COc1cc(Nc2ncc3c(n2)-c2ccc(Cl)cc2C(c2c(F)cccc2OC)=NC3)ccc1C(=O)O`: the result_ITMP is 2.58%.

With `OC(CCN1CCCCC1)(c1ccccc1)c1ccccc1`, the result_ITMP came out at 3.27%.

As to `CCN(CC)CCNC(=O)c1ccccc1I`, the result_ITMP is -6.63%.

Turning to `Cc1c(Cl)c(C)[n+]([O-])c(Cl)c1-c1noc(-c2cc(O)c(O)c([N+](=O)[O-])c2)n1`, the result_ITMP is -1.09%.

With `CCc1cc2c(c(CC)n1)CCC(=O)N2Cc1ccc(-c2ccccc2-c2nnn[nH]2)cc1`, the result_ITMP is given as -1.67%.

For `O=C1C[C@@]2(C(=O)N1)C(=O)N(Cc1ccc(Br)cc1F)C(=O)c1cccn12`, the result_ITMP is recorded as 0.4%.

`CCOC(=O)C1=C(C)NC(C)=C(C(=O)OC)C1c1cccc(Cl)c1Cl` (centres unmarked): the result_ITMP is 8.19%.

On to `C(=C\c1ccccc1)/CN1CCN(CCOC(c2ccccc2)c2ccccc2)CC1`, for which the result_ITMP is recorded as 7.08%.

For `C=C1C(=O)[C@@]23C(CC[C@@H]1[C@H]2O)[C@@]12CO[C@]3(O)[C@@H](O)[C@@H]1C(C)(C)CC[C@@H]2O` (some centres unmarked), the result_ITMP was 3.95%.

Consider `CO[C@H]1C[C@H](O[C@@H]2/C(C)=C/C[C@@H]3C[C@@H](C[C@]4(CC[C@H](C)[C@@H](C5CCCCC5)O4)O3)OC(=O)[C@@H]3C=C(C)/C(=N/O)[C@H]4OC/C(=C\C=C\[C@@H]2C)[C@]43O)O[C@@H](C)[C@@H]1O`, for which the result_ITMP is on record as -3.99%.

As to `CN1CCN(Cc2ccc(-c3cnc4[nH]cc(-c5ccc6[nH]ccc6c5)c4c3)cc2)CC1`, the result_ITMP is on record as -0.11%.

On to `O=C(Nc1ccc2c(O)cc(S(=O)(=O)[O-])cc2c1)Nc1ccc2c(O)cc(S(=O)(=O)[O-])cc2c1`, for which the result_ITMP is -7.47%.

Consider `O=C(Nc1ccccc1)N[C@H]1C[C@H](C(=O)O)Nc2cc(Cl)cc(Cl)c21`, for which the result_ITMP is -2.19%.

As to `O=C1c2c(O)ccc(O)c2C(=O)c2c(NCCNCCO)ccc(NCCNCCO)c21`, the result_ITMP was -15.3%.

Consider `CCOC(=O)c1ccc(NC2CCCCC2)c(N)c1`, for which the result_ITMP is -2.75%.

With `CC(=O)O[C@H]1C[C@@H]2CC[C@@H]3[C@H](CC[C@@]4(C)[C@H]3C[C@H]([N+]3(C)CCCCC3)[C@@H]4OC(C)=O)[C@@]2(C)C[C@@H]1[N+]1(C)CCCCC1`, the result_ITMP is given as -1.37%.

Turning to `O=C(NC(Cc1cc(=O)[nH]c2ccccc12)C(=O)O)c1ccc(Cl)cc1` (centres unmarked), the result_ITMP is given as 1.81%.

As for `CC(C)c1cc(C(C)C)c(CC(=O)NS(=O)(=O)Oc2c(C(C)C)cccc2C(C)C)c(C(C)C)c1`, the result_ITMP is on record as -7%.

In the case of `CC(C)(C)NC[C@H](O)COc1cccc2c1CCCC2=O`, the result_ITMP is on record as -3.94%.

Regarding `COc1ccc(S(=O)(=O)N2CCCN(S(=O)(=O)c3ccc(OC)c(OC)c3)CC2)cc1OC`, the result_ITMP is -6.24%.

Consider `O=C(NNc1nc2cc(F)ccc2n2cccc12)c1cnccn1`, for which the result_ITMP is listed as -1.48%.

Consider `C[N+](C)(C)CCOC(N)=O`, for which the result_ITMP is listed as -0.88%.

As for `CC(C)c1cc(CNc2nc(Nc3cc(C4CC4)[nH]n3)cc(N3CCN(C)CC3)n2)on1`, the result_ITMP was determined as 20%.

Regarding `Cc1nn(C)c2c1C(c1cccc(Cl)c1)=NCCN2`, the result_ITMP is -1.14%.

Turning to `COC(=O)/C=C/C(=O)OC`, the result_ITMP is given as -6.83%.

In the case of `COc1ccc(-c2oc3cc(OC)ccc3c2C(=O)c2ccc(C#N)cc2)cc1`, the result_ITMP stood at 0.44%.

As for `CCc1ccc(OCc2ccccc2C(=O)Nc2ccc3nc(C)cc(N)c3c2)cc1`, the result_ITMP was -10.1%.

Take `CN(C)CCc1c[nH]c2ccc(CS(=O)(=O)N3CCCC3)cc12`: the result_ITMP is reported as -4.05%.

`Cn1nc(C(C)(C)C)cc1C(=O)N[C@@H](Cc1cccc(Cl)c1)C(=O)NCC#N`: the result_ITMP was -8.49%.

Consider `CC1(COc2ccc(CC3SC(=O)NC3=O)cc2)CCCCC1` (centres unmarked), for which the result_ITMP is listed as -1.61%.

Take `CN(c1ncccc1CNc1nc(Nc2ccc3c(c2)CC(=O)N3)ncc1C(F)(F)F)S(C)(=O)=O`: the result_ITMP came to 41.6%.

On to `CC(C)OC(=O)[C@H](C)N[P@@](=O)(OC[C@H]1O[C@@H](n2ccc(=O)[nH]c2=O)[C@](C)(F)[C@@H]1O)Oc1ccccc1`, for which the result_ITMP worked out at 0.21%.

For `O=C(c1ccc(Cl)cc1)N(Cc1ccccc1)C1CCCCC1`, the result_ITMP is given as -0.41%.

In the case of `CCCCCCCCCC(=O)OCCN1CCN(CCCN2c3ccccc3Sc3ccc(C(F)(F)F)cc32)CC1`, the result_ITMP stood at 5.56%.

With `C=C1/C(=C\C=C2/CCC[C@]3(C)[C@@H]([C@H](C)/C=C/[C@H](C)C(C)(C)O)CC[C@@H]23)C[C@@H](O)C[C@@H]1O`, the result_ITMP is -2.3%.

As to `O=C1C=CC[C@@H]2[C@H]3CCCN4CCC[C@@H](CN12)[C@@H]34`, the result_ITMP is -2.58%.

As to `CC(CNC(=O)c1cccnc1)NC(=O)c1cccnc1` (centres unmarked), the result_ITMP is listed as -5.4%.

In the case of `CC(C)SC(=N)N`, the result_ITMP is recorded as -3.42%.

For `O=C(O)C(=O)CBr`, the result_ITMP is listed as -2.27%.

For the molecule `O=C(Nc1ccccc1)N1CCN(c2nc(-c3ccccc3)ns2)CC1`, the result_ITMP is recorded as 3.42%.

Turning to `C=C[C@H]1C[N@]2CC[C@H]1C[C@@H]2[C@H](O)c1ccnc2ccc(OC)cc12`, the result_ITMP was found to be 3.64%.

Take `COc1ccc(/C=C/C(=O)O)cc1`: the result_ITMP is -5.6%.

For `CC(OC(=O)NCC1(CC(=O)O)CCCCC1)OC(=O)C(C)C` (centres unmarked), the result_ITMP is recorded as -4.68%.

For `CC1=NN(c2ccc(C(=O)O)cc2)C(=O)/C1=C\c1ccc(-c2cc(C)c(C)cc2[N+](=O)[O-])o1`, the result_ITMP is recorded as -1.81%.

As for `CC1(C)OC2(C)C(O)CC1CC2O` (centres unmarked), the result_ITMP was -3.78%.

For the molecule `C[C@@H](c1nc(-c2ccc(C#N)cc2)cs1)[C@](O)(Cn1cncn1)c1ccc(F)cc1F`, the result_ITMP turned out to be 1.42%.

For `CN1CCN2c3ccccc3Cc3ccccc3C2C1` (centres unmarked), the result_ITMP is reported as 15.9%.

Regarding `CCCCCCCCOc1ccccc1C(=O)Nc1ccc(C(=O)OCC[N+](C)(CC)CC)cc1`, the result_ITMP is -2.34%.

With `N[C@@H](Cc1ccc(O)c(O)c1)C(=O)O`, the result_ITMP is -7.14%.

Consider `CCCCc1ncc(/C=C(\Cc2cccs2)C(=O)O)n1Cc1ccc(C(=O)O)cc1`, for which the result_ITMP worked out at 4.58%.

Regarding `CC(C)(C)C#Cc1cc(N(C(=O)[C@H]2CC[C@H](C)CC2)[C@H]2CC[C@@H](O)CC2)c(C(=O)O)s1`, the result_ITMP is -2.12%.

With `c1coc(-c2nnc3sc(C4CCCCC4)nn23)c1`, the result_ITMP is 10.7%.

For `Cc1ccc(S(=O)(=O)NCc2ccccc2)cc1`, the result_ITMP was -2.29%.

In the case of `O=c1[nH]c(=O)n(C2C[C@@H](O)[C@@H](CO)O2)cc1F` (some centres unmarked), the result_ITMP is -11.2%.

`CN1CCN(C(=O)O[C@H]2c3nccnc3C(=O)N2c2ccc(Cl)cn2)CC1`: the result_ITMP is on record as -5.6%.

As for `COC(=O)C1=C(C)NC(C)=C(C(=O)OC(C)(C)CN(C)CCC(c2ccccc2)c2ccccc2)C1c1cccc([N+](=O)[O-])c1` (centres unmarked), the result_ITMP was 33%.

As for `CC(C)(O)C(=O)N1CCN(c2ccc(C(F)(F)F)c(C3=C(c4c[nH]c5ccccc45)C(=O)NC3=O)c2)CC1`, the result_ITMP is 11.3%.

In the case of `O=C(Nc1cccnc1)c1cc(-c2ccnc(F)c2)ccc1OCc1ccccc1`, the result_ITMP was -7.05%.

For the molecule `COc1cc2ncnc(Nc3cccc(Br)c3)c2cc1OC`, the result_ITMP is given as -0.94%.

As to `COc1ccc(Cl)cc1NC(=O)Nc1cc(C)nc2ccccc12`, the result_ITMP is recorded as -7.16%.

Consider `CCn1c(=O)c(-c2ccc(Cl)cc2Cl)cc2cnc(Nc3ccc(N4CCNCC4)c(F)c3)nc21`, for which the result_ITMP was -0.74%.

As for `CN(C)CCC(c1ccc(Br)cc1)c1ccccn1` (centres unmarked), the result_ITMP was found to be 13.9%.

With `O=C([O-])CCCc1ccccc1`, the result_ITMP is recorded as 0.94%.

On to `COc1cc2ncnc(Nc3cccc(Cl)c3F)c2cc1OC(=O)N1CCN(C)C[C@H]1C`, for which the result_ITMP was determined as 10.7%.

On to `O=c1[nH]c2ccccc2n1CCN1CCN(c2cccc(C(F)(F)F)c2)CC1`, for which the result_ITMP is listed as 3.35%.

With `O=C1CC[C@@H](C(=O)N2CSC[C@H]2C(=O)O)N1` ([pGlu]-[Thz]-OH), the result_ITMP is on record as -3.91%.

As to `c1ccc(-c2ccc(C(c3ccccc3)n3ccnc3)cc2)cc1` (centres unmarked), the result_ITMP is given as -0.6%.

With `Oc1c(Cl)cc(Cl)c2cccnc12`, the result_ITMP is listed as -8.11%.

Regarding `O=C([O-])C(O)[C@H](O)[C@H](O)[C@H](O)[C@H](O)CO` (some centres unmarked), the result_ITMP is -2.15%.

Consider `CC(C)Oc1ccc(-c2nn([C@@H](C)c3oc4ccc(F)cc4c(=O)c3-c3cccc(F)c3)c3ncnc(N)c23)cc1F`, for which the result_ITMP is 0.92%.

On to `O=C([O-])CCC(=O)OC[C@H](NC(=O)C(Cl)Cl)C(O)c1ccc([N+](=O)[O-])cc1` (some centres unmarked), for which the result_ITMP is 1.81%.

Consider `COc1cc(Nc2c(C#N)cnc3cc(OCCCN4CCN(C)CC4)c(OC)cc23)c(Cl)cc1Cl`, for which the result_ITMP was 68%.
